Experiment [1] deals with FLAG-Cullin1 (UniProt Q13616). The experiment is described as follows: co-IP; HEK293T cells co-transfected with two tagged proteins; lysates in IP buffer, antibody (anti-FLAG, anti-HA or anti-myc) and protein A-sepharose beads, 4°C, 2–3 h; immunoblotting.
For experiment [2], the target named is endogenous Cullin1 (SK-Mel-37 cells) (human (endogenous in SK-Mel-37)) (UniProt Q13616). Briefly: co-IP; endogenous proteins, SK-Mel-37 cell lysates, immunoprecipitates with indicated antibodies, rabbit IgG as negative control; immunoblotting.
Experiment [3] deals with FLAG-Skp2 (UniProt Q13309). The experiment is described as follows: co-IP; HEK293T cells co-transfected with two tagged proteins; lysates in IP buffer, antibody (anti-FLAG, anti-HA or anti-myc) and protein A-sepharose beads, 4°C, 2–3 h; immunoblotting. (In general: Immunoblotting shows a protein as a band on a membrane.)
Experiment [4] addresses FLAG-Fbw7 (UniProt Q969H0). Described as above.
Experiment [5] deals with FLAG-Skp1 (human) (UniProt P63208). The experiment is described as above.
Experiment [6] addresses GST-Skp1 (human) (UniProt P63208). The experiment is described as follows: pull-down; about 10 μg glutathione Sepharose-linked GST-fusion protein incubated with purified protein in 200 μl GST binding buffer (PBS, 0.1% NP-40, 5 mM dithiothreitol, protease inhibitors), overnight, 4°C; Western blotting; both purified.
Experiment [7] has as its target myc-tagged Cullin1 FL (UniProt Q13616). The experiment is described as follows: co-IP; HEK293T cells co-transfected with two tagged proteins; lysates in IP buffer, antibody (anti-FLAG, anti-HA or anti-myc) and protein A-sepharose beads, 4°C, 2–3 h; immunoblotting.
Experiment [8] deals with FLAG-Cullin1 (UniProt Q13616). The experiment is described as follows: co-IP; HEK293T cells transfected with FLAG-Cullin1, HA-Skp1 and GFP-MAGE-C2 or GFP; immunoprecipitated with anti-FLAG antibody; immunoblotting.
For experiment [9], the target named is endogenous Cullin1 (A375 cells) (human (endogenous in A375)) (UniProt Q13616). The experiment is described as follows: proximity ligation; in situ PLA (Duolink) in fixed, permeabilised A375 cells; mouse anti-MAGE-C2 with rabbit anti-Cullin1, anti-Rbx1 or anti-Skp1; endogenous proteins.
For experiment [10], the target named is endogenous Skp1 (A375 cells) (human (endogenous in A375)) (UniProt P63208). Described as above.

By UniProt entry, the sequences of proteins in these tests, tags left out.
UniProt Q13616: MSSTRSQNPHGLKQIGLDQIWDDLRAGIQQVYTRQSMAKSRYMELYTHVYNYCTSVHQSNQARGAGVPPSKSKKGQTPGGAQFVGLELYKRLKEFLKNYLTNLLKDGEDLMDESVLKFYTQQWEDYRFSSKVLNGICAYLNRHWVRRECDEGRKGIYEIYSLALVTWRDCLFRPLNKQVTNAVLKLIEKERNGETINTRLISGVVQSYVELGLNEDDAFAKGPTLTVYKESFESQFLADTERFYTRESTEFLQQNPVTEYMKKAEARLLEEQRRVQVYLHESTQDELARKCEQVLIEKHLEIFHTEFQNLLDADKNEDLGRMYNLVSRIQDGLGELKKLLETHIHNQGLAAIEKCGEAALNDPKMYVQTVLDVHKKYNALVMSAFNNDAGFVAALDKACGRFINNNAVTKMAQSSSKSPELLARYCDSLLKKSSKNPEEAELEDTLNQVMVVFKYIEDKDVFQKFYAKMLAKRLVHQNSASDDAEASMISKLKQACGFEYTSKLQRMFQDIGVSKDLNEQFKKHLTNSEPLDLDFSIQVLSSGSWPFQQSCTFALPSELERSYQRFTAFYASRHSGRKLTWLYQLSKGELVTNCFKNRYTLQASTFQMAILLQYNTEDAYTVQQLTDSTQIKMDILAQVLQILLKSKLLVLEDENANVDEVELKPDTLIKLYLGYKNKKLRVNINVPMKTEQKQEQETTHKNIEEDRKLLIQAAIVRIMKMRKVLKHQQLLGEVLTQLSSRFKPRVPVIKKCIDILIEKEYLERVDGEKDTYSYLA
UniProt Q13309: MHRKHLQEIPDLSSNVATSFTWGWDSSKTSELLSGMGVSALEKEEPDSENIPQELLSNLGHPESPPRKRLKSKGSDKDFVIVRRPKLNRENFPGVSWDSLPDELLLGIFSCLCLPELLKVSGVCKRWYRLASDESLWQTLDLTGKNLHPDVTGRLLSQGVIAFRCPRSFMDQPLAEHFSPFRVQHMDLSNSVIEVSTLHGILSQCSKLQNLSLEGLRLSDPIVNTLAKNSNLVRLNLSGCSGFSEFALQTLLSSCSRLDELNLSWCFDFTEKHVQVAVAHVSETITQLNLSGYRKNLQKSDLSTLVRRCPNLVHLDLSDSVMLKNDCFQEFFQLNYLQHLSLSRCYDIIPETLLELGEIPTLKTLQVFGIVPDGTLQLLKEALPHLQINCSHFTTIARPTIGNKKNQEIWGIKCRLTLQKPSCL
UniProt Q969H0: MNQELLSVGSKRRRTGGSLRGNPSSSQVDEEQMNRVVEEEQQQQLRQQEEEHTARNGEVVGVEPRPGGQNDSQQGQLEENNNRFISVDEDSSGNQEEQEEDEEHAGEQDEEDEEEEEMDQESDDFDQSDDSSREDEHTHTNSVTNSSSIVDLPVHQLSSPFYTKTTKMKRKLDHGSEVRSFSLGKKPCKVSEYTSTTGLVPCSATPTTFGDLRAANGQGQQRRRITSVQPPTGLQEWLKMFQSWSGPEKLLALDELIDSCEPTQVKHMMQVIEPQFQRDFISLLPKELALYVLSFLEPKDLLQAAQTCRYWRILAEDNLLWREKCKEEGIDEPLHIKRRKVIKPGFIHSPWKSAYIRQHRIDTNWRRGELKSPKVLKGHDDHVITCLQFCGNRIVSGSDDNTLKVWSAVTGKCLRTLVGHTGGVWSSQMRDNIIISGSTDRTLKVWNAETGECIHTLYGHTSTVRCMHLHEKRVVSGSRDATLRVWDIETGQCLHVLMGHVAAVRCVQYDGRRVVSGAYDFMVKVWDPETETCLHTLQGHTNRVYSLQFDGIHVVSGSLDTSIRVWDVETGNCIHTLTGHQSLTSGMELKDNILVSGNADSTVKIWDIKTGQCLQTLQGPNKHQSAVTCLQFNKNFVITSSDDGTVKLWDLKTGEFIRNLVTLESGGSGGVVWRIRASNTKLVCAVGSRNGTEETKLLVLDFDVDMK
UniProt P63208: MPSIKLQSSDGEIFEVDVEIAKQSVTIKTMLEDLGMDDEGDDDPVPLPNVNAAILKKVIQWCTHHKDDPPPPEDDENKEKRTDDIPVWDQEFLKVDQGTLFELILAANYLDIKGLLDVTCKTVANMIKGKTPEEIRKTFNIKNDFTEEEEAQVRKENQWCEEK

Results are given in words; binding and its absence hold for the method and conditions named. For some of these results: Binding seen in cells or lysates may run through a third protein. Some results given as binding are weak or reduced against the parent protein; the word gives no strength. For some of these results: Where a sequence is shown, tags or fusion partners need not be part of it.

B1: MAGE-C2 Δ148–314 (protein, UniProt Q9UBF1)
chain: MPPVPGVPFRNVDNDSPTSVELEDWVDAQHPTDEEEEEASSASSTLYLVFSPSSFSTSSSLILGGPEEEEVPSGVIPNLTESIPSSPPQGPPQGPSQSPLSSCCSSFSWSSFSEESSSQKGEDTGTCQGLPDSESSFTYTLDEKVAELEFLAKLNNTVPSSFPSWYKDALKDVEERVQATIDTADDATVMASESLSVMSSNVSFSE
As for B1, in experiment [1], the binding entry is recorded as “binds”.

B2: endogenous MAGE-C2 (SK-Mel-37 cells) (protein, UniProt Q9UBF1 1-373)
chain: MPPVPGVPFRNVDNDSPTSVELEDWVDAQHPTDEEEEEASSASSTLYLVFSPSSFSTSSSLILGGPEEEEVPSGVIPNLTESIPSSPPQGPPQGPSQSPLSSCCSSFSWSSFSEESSSQKGEDTGTCQGLPDSESSFTYTLDEKVAELVEFLLLKYEAEEPVTEAEMLMIVIKYKDYFPVILKRAREFMELLFGLALIEVGPDHFCVFANTVGLTDEGSDDEGMPENSLLIIILSVIFIKGNCASEEVIWEVLNAVGVYAGREHFVYGEPRELLTKVWVQGHYLEYREVPHSSPPYYEFLWGPRAHSESIKKKVLEFLAKLNNTVPSSFPSWYKDALKDVEERVQATIDTADDATVMASESLSVMSSNVSFSE
With B2, the binding result in experiment [2] is listed as “binds”.

B3: HA-MAGE-C2 (protein, UniProt Q9UBF1 1-373)
chain: B2 chain
For B3, the binding result in [1] is “binds”; in experiment [3] it was “no binding”; in [4], “binds”; in [5] it was “no binding”.

B4: Recombinant human MAGE-C2 protein (protein, UniProt Q9UBF1 1-373)
chain: B2 chain
On to B4, for which the binding result in [6] is “no binding”.

B5: FLAG-MAGE-C2 (protein, UniProt Q9UBF1 1-373)
chain: B2 chain
Consider B5, for which the binding result in [7] was “binds”.

B6: GFP-MAGE-C2 (protein, UniProt Q9UBF1 1-373)
chain: B2 chain
For the molecule B6, the binding result in [8] is listed as “binds”.

B7: endogenous MAGE-C2 (A375 cells) (protein, UniProt Q9UBF1 1-373)
chain: B2 chain
For B7, the binding entry in experiment [9] is on record as “binds”; in experiment [10], “no binding”.

B8: MAGE-C2 Δ245–373 (domain or fragment, UniProt Q9UBF1 1-244)
chain: MPPVPGVPFRNVDNDSPTSVELEDWVDAQHPTDEEEEEASSASSTLYLVFSPSSFSTSSSLILGGPEEEEVPSGVIPNLTESIPSSPPQGPPQGPSQSPLSSCCSSFSWSSFSEESSSQKGEDTGTCQGLPDSESSFTYTLDEKVAELVEFLLLKYEAEEPVTEAEMLMIVIKYKDYFPVILKRAREFMELLFGLALIEVGPDHFCVFANTVGLTDEGSDDEGMPENSLLIIILSVIFIKGNCA
As for B8, the binding result in [1] is recorded as “binds”.

B9: MAGE-C2 Δ31–147 (protein, UniProt Q9UBF1)
chain: MPPVPGVPFRNVDNDSPTSVELEDWVDAQHLVEFLLLKYEAEEPVTEAEMLMIVIKYKDYFPVILKRAREFMELLFGLALIEVGPDHFCVFANTVGLTDEGSDDEGMPENSLLIIILSVIFIKGNCASEEVIWEVLNAVGVYAGREHFVYGEPRELLTKVWVQGHYLEYREVPHSSPPYYEFLWGPRAHSESIKKKVLEFLAKLNNTVPSSFPSWYKDALKDVEERVQATIDTADDATVMASESLSVMSSNVSFSE
Turning to B9, in [1], the binding result is on record as “binds”.

Source of the values: PMC4747207.
